Hit rate of the full screen: of about 150,000 compounds, about 540 (0.36%) showed an effect of 50% or more. The list shows a part of the results.

In this assay the test system is Plasmodium falciparum. Put plainly: Primary screen in NF54 nanoGlo assay, in single point, at 2uM, 72h; a lower Z score goes with more inhibition. Type of assay: functional, Erythrocyte. As to conditions: timepoint 72 hour.
What is called % Inhibition is the change of the read-out against control, counted positive when it falls. `O=C(C1=NN(c2ccccc2)c2ncccc2S1(=O)=O)N1CCOCC1`: the “% Inhibition” value is on record as 2% and the Z score is -0.3.
In the same order, the values of `CC1CC2CCCCC2N1Cc1nnc(C2CCC2)o1` (stereo not given) are -9% and 1.51.
In the case of `CCc1nnc(-c2c(C)c(S(=O)(=O)Nc3ccc(F)c(C)c3)c(C)n2CC)o1`, the “% Inhibition” value is recorded as 1% and the Z score is listed as -0.14.
In the same order, the values of `CCOC(=O)N1CCN(C(=O)c2cnc(C3CC3)nc2C)CC1` are -15% and 2.03.
In the same order, the values of `COc1ccc(N2C[C@@H](C(=O)N3CCC(C#N)(N4CCCC4)CC3)CC2=O)cc1` are -13% and 1.28.
The like results for `O=C(NCc1ccc2c(c1)OCO2)c1ccc(-c2cccs2)nc1` were, in that order, -9% and 1.66.
With `Cc1cnc(CNC(=O)[C@@H](C)Cn2cccn2)cn1`, the “% Inhibition” value was -16% and the Z score is listed as 1.43.
In the same order, the values of `Cn1cccc1CN1CCC[C@H](C(=O)NCC(F)(F)F)C1` are 0% and -0.04.
As to `Cc1cc(NC(=O)c2c(C)noc2C)n(C)n1`, the “% Inhibition” value is listed as -10% and the Z score came out at 1.27.
Turning to `CC1(C)C[C@H](NC(=O)N2CC(CC(F)(F)F)C2)CO1`, the “% Inhibition” value is reported as -4% and the Z score stood at 0.36.
The like results for `CCNC(=O)N(Cc1c(C)nn(-c2ccccc2)c1Oc1ccc(Cl)cc1)CC1CC1` were, in that order, 0% and -0.05.
The like results for `O=C(Nc1ccc(Cl)cc1)c1ccc2c(=O)n3c(nc2c1)CCCC3` were, in that order, -10% and 1.51.
On to `Cc1cc(N(C)Cc2ccccc2)n2nc(-c3ccccc3C)nc2n1`, for which the “% Inhibition” value is -13% and the Z score stood at 2.33.
The like results for `Cc1cc(Br)c2c(c1)CCCN2C(=O)c1ncoc1C` were, in that order, 15% and -1.91.
In the same order, the values of `Cc1ccc2nc(NC(=O)c3ccc4c(c3)c(C)c(C)n4Cc3ccccc3)sc2c1` are -1% and 0.2.
In the same order, the values of `CCN(C(=O)Nc1c(C)cccc1C)C1COC1` are -3% and 0.51.
`COCCn1ccc2ccn(Cc3ccc(F)cc3)c(=O)c21`: the “% Inhibition” value is -18% and the Z score is 1.55.
In the case of `Cc1cc(C(=O)N(Cc2ccc3c(c2)CCO3)C2CCCC2)on1`, the “% Inhibition” value is -4% and the Z score is 0.5.
On to `CCOc1ccc(N2C[C@@H](NC(=O)N3CCN(Cc4ccc5c(c4)OCO5)CC3)CC2=O)cc1`, for which the “% Inhibition” value stood at 18% and the Z score was -2.24.
The like results for `Cc1cnn([C@H]2CCCN(CCNS(=O)(=O)c3ccccc3)C2)c1` were, in that order, -6% and 0.92.
Take `CN1CCN(S(=O)(=O)N2CCN(C(=O)Nc3ccc(C#N)cc3)CC2)CC1`: the “% Inhibition” value was -5% and the Z score came out at 0.81.
The like results for `O[C@H]1CN(Cc2ccccc2C#Cc2ccccc2)CC[C@@H]1N1CCOCC1` were, in that order, 0% and 0.
The like results for `Cc1noc2nc(C3CC3)cc(C(=O)N[C@H]3CCCc4ccccc43)c12` were, in that order, 28% and -3.12.
The like results for `COc1ccc(OCC(=O)N(C)C)cc1` were, in that order, -6% and 0.59.
Take `CCOC1CC(O)(CNC(=O)Nc2ccncc2C)C1` (stereo not given): the “% Inhibition” value was -1% and the Z score worked out at 0.15.
In the same order, the values of `COc1cccc(-c2cc(-c3cccnc3)nc(N)c2C#N)c1` are 27% and -3.01.
On to `COc1nccnc1N(C)Cc1ccc(CN(C)C)cc1`, for which the “% Inhibition” value is on record as -6% and the Z score worked out at 0.83.
The like results for `Cc1ccc([C@H](NC2CCNCC2)c2cccnc2)cc1C` were, in that order, 7% and -0.96.
For `CCOc1ccc(C[C@@H](CNC(=O)Cc2c[nH]c3c(C)cccc23)C(=O)O)cc1`, the “% Inhibition” value is reported as -9% and the Z score was 1.04.
`N#CCCN(CCC(F)(F)F)C(=O)[C@@H]1COc2ccccc21`: the “% Inhibition” value is listed as -5% and the Z score is given as 0.68.
In the same order, the values of `CN(C)C(=O)CCc1cccc(N2Cc3ncccc3C2=O)c1` are 2% and -0.36.
The like results for `O=C(c1ccc(F)c2ccncc12)N(CC1CCCCC1)c1ccccn1` were, in that order, -1% and 0.14.
`COc1cc(C)ccc1OCCN1C[C@H](O)[C@@H](F)C1`: the “% Inhibition” value is listed as 4% and the Z score is reported as -0.83.
The like results for `CN(C)C(=O)OC[C@H]1CCCCN1C(=O)c1cc(=O)[nH]c(C2CC2)n1` were, in that order, -9% and 1.51.
`O=C1NC[C@@H](O)CC12CN(c1ccncc1C(F)(F)F)C2`: the “% Inhibition” value is on record as -3% and the Z score is on record as 0.48.
In the same order, the values of `CC1c2[nH]c3ccccc3c2C[C@H]2C(=O)N(C3CCCC3)CC(=O)N12` (stereo not given in full) are -7% and 0.84.
In the same order, the values of `O=C(COCc1cc[nH]c(=O)c1)N1CCCCC12CCCCCC2` are 1% and -0.09.
`CCCCCc1nnc(NC(=O)c2cc(C#N)cn2C)s1`: the “% Inhibition” value worked out at 7% and the Z score is -1.24.
In the same order, the values of `Cc1cccc(CN2CC[C@@]3(CCCN(C(=O)COc4ccccc4)C3)C2)n1` are -3% and 0.44.
Turning to `Cc1nc(C)c(COc2ccc(OCC(N)=O)cc2)s1`, the “% Inhibition” value is listed as -4% and the Z score was found to be 0.61.
In the same order, the values of `CN1CCN(C)C(CNC(=O)N2CCCC(C)(c3ccccc3)C2)C1` (stereo not given) are -10% and 0.94.
The like results for `C[C@@H](CCc1ccccc1)NC(=O)c1cncn1-c1ccc(-c2ccc(F)c(F)c2)cc1` were, in that order, 0% and -0.07.
As for `CC(=O)N1N=C(c2c(C)nc3ccc(Cl)cc3c2-c2ccccc2)C[C@H]1c1ccc(Cl)cc1Cl`, the “% Inhibition” value was -10% and the Z score was 1.89.
The like results for `CC(CO)(CO)NC(=O)c1ccccc1F` were, in that order, -44% and 5.13.
The like results for `O=C(Nc1ccnc2cccnc12)[C@H]1CCCO1` were, in that order, 0% and -0.05.
The like results for `COc1ccc(-c2c(C)noc2NC(C)=O)cc1S(=O)(=O)N1CCCCCC1` were, in that order, -6% and 0.92.
For the molecule `CC[C@@H](CO)NCc1c(F)cccc1Cl`, the “% Inhibition” value is -14% and the Z score turned out to be 2.05.
`CC(C)(NC(=O)c1ccnc2ccnn12)[C@H](O)C(F)(F)F`: the “% Inhibition” value is listed as -2% and the Z score is 0.37.
The like results for `Cc1c(C(C)C)c(=O)n(-c2ccc(S(=O)(=O)Nc3ccc4c(c3)n(C)c(=O)n4C)cc2)n1C` were, in that order, -24% and 2.76.
`Cc1ccc(CNC(=O)[C@@H](NC(=O)c2ccc(C)cc2)C(C)C)cc1`: the “% Inhibition” value is reported as -15% and the Z score was 1.71.
The like results for `CN1CC[C@@H]2CN(C(=O)C3CCc4ccccc4CC3)C[C@@H]21` were, in that order, -7% and 1.17.
On to `CC(C)(CN1CCN(S(=O)(=O)c2ccc(C(N)=O)o2)CC1)c1ccccc1`, for which the “% Inhibition” value is reported as -7% and the Z score was 0.69.
In the same order, the values of `O=C1CO[C@H]2CN(c3ncccn3)C[C@H]2N1c1ccccc1` are -1% and 0.17.
As to `O=C1Cc2cc(S(=O)(=O)Nc3cc4c(cc3Cl)OCO4)ccc2N1`, the “% Inhibition” value is -2% and the Z score amounted to 0.22.
For the molecule `c1[nH]nnc1CCN1CCOC[C@@H]1CC1CCOCC1`, the “% Inhibition” value is recorded as 5% and the Z score is recorded as -1.02.
The like results for `COc1ccccc1CCn1ccnc1-c1ccoc1` were, in that order, -2% and 0.18.
With `Cn1cc(NC(=O)C[C@H]2CCCc3ccccc32)cc1C(N)=O`, the “% Inhibition” value worked out at 4% and the Z score is given as -0.75.
`COc1nccc2c(NS(=O)(=O)C[C@H](C)OC)cccc12`: the “% Inhibition” value was -7% and the Z score is reported as 1.41.
In the same order, the values of `CCN1CC[C@H](CN(C)S(=O)(=O)c2cc(C)sc2C)C1` are 3% and -0.29.
As to `CCN1[C@@H]2CCCC[C@@]2(C(=O)NCCN(C)C2CCCCC2)CCS1(=O)=O`, the “% Inhibition” value was 7% and the Z score is on record as -1.19.
As for `Cc1cnc(C)c(N2Cc3cnn(CCO)c3C2)n1`, the “% Inhibition” value is given as -12% and the Z score is on record as 1.53.
In the same order, the values of `CC(C)(C)OC(=O)N1CCN(C(=O)c2ccn(-c3cccc(F)c3)n2)[C@H](C#N)C1` are -14% and 1.87.
In the same order, the values of `CNC(=O)NCc1cccnc1-c1cccc(C)c1` are 18% and -2.41.
`O=C(CCn1cnc2cc(-c3noc(-c4ccc(F)c(Cl)c4)n3)ccc21)N1CCCC1`: the “% Inhibition” value is listed as -13% and the Z score was 1.7.
For the molecule `COc1ccc(C2CN(C(=O)c3ccc(F)cc3)CC2C(=O)N2CCOCC2)c(OC)c1` (stereo not given), the “% Inhibition” value is recorded as -10% and the Z score turned out to be 1.58.
The like results for `CC(C)N1CCC[C@H](CN(C)c2nccc(N)n2)C1` were, in that order, -1% and 0.2.
On to `COc1ccc(-c2ncc(CN[C@H]3CCCc4c3cnn4-c3ccccc3F)cn2)cc1`, for which the “% Inhibition” value was -11% and the Z score came to 1.
In the same order, the values of `CCn1cnc2c1CCN(C(=O)Nc1cc(C)cnc1OC(C)C)C2` are -11% and 2.05.
The like results for `O=C(NCc1cn(-c2ccncc2)nn1)Nc1nccs1` were, in that order, 3% and -0.45.
In the same order, the values of `CC(C)(C)n1nnnc1CN1CCc2nc[nH]c2C12CCOCC2` are -8% and 0.83.
On to `CC[C@@H](C(=O)NCc1cnc(C)cc1C)N1CCCC1`, for which the “% Inhibition” value is recorded as -8% and the Z score amounted to 1.18.
The like results for `CCCCc1nc(Cn2nc3ccccn3c2=O)no1` were, in that order, 0% and -0.05.
The like results for `NC(=O)CCn1cc(CNCCc2[nH]nc3c2CCCC3)c2ccccc21` were, in that order, -6% and 1.2.
As for `Cc1cc(Cn2c(-c3ccccc3)c(C)sc2=O)on1`, the “% Inhibition” value is -8% and the Z score was 1.27.
In the same order, the values of `CCc1ccc(CNC(C)(C)c2cnn(C)c2)o1` are -3% and 0.27.
The like results for `Cc1cc(C(=O)N[C@@H](Cn2cncn2)C(C)C)n(C)n1` were, in that order, 15% and -1.99.
As for `CC(=O)NCc1ccc(-c2noc(CCc3c[nH]c4ccccc34)n2)s1`, the “% Inhibition” value amounted to 0% and the Z score is given as -0.03.
In the same order, the values of `CCn1cc([C@H](CC(=O)NCCOC)c2cc(OC)cc(OC)c2)c2ccccc21` are -1% and 0.13.
The like results for `CCCCN(CC)CCNc1ncnc2onc(C)c12` were, in that order, -5% and 0.88.
As for `CNc1nc2c(s1)[C@@H](c1cc(Cl)ccc1F)CC(=O)N2`, the “% Inhibition” value is reported as -3% and the Z score was 0.38.
Turning to `Cc1cccc(-c2nc3n(CC(=O)Nc4ccc(F)cc4)c(C)cc(=O)n3n2)c1`, the “% Inhibition” value is 1% and the Z score was -0.13.
Turning to `Cc1ccc(-n2c(C)nn(-c3ncc(C(F)(F)F)cc3Cl)c2=O)cc1`, the “% Inhibition” value is recorded as 0% and the Z score is on record as -0.01.
As to `CCCNC(=O)NC(=O)COc1ccc(Cl)cc1`, the “% Inhibition” value is -3% and the Z score is given as 0.21.
The like results for `COCCNC(=O)[C@@]1(OCc2cccc(OC)c2)CC(OCc2c(F)cccc2F)[C@@H]2OC(C)(C)O[C@@H]2C1` (stereo not given in full) were, in that order, 1% and -0.09.
As to `CC(c1ccccn1)N(C)CC(=O)NC(C)(C#N)C1CC1` (stereo not given), the “% Inhibition” value is -11% and the Z score was found to be 2.02.
